Data from patent EP4574846A1 (Quaerite Biopharm Research (Beijing) Co., Ltd., dated 2025).

Target: T1, human VEGFA165 (human, UniProt P15692-4 27-191)
T1 construct: also called antigen VEGFA
T1 sequence (looked up): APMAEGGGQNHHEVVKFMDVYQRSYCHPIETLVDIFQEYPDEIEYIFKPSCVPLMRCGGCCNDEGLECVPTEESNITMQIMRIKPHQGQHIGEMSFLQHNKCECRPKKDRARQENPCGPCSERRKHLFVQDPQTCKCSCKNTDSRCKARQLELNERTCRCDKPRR
Test: SPR, VEGFA165 on CM5; reference: aflibercept
Set-up: unit not given beside the values

KD as a fraction of aflibercept's KD: ~0.083
B1: 2V1-SA1-3GS-Fc (Fc fusion)
chain: EVQLVESGGGLVQPGGSLRLSCAVSGRTFSSYTMGWFRQAPGKEREFVVAISKGGYKYDSVSLEARFTISRDNAKNTVYLQMNSLRPEDTAVYYCAATRAYGSSRLRLADTYEYWGQGTLVTVSSGGSEVQLVESGGGLVQPGGSLRLSCAVSGRTFSSYTMGWFRQAPGKEREFVVAISKGGYKYDSVSLEARFTISRDNAKNTVYLQMNSLRPEDTAVYYCAATRAYGSSRLRLADTYEYWGQGTLVTVSS[letters of human IgG1 Fc omitted]
